The IC50 comes from the fitted curve, where viability falls to half of the control; a fit beyond the top or the lowest dose is shown as a bound at that dose. AUC is the area under the same curve over the 256-fold range up to the top dose, as a fraction; values near 1 show little effect. For some of these results: The top dose, if marked as inferred, is not printed in the source and was worked back from the curve model. For some of these results: Drugs with an entry number were screened twice under separate entries, and the two screens often disagree.
Key:
Experiment in all cases: Viability of human cancer cell lines after 72 h of drug (GDSC screen)
[1] = compound: CC1(C)CC(=O)c2c(C(F)(F)F)nn(-c3ccc(C(N)=O)c(N[C@H]4CC[C@H](O)CC4)c3)c2C1 [SNX-2112]; details: top dose 2.56 µM
Experimental: (§1)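 Human cancer cell lines in 384-well plates, medium with 10% serum, drug for 72 h over a 256-fold dose range (nine 2-fold or five 4-fold steps up to the top dose). Adherent lines were fixed and stained with the nucleic acid dye Syto60, suspension lines read with resazurin; signal relative to control wells, capped at 0 and 100%. One two-parameter sigmoid per drug and line, fitted in a mixed model over all curves with the slope shared within a line.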

[2] = compound: CC[C@]1(O)C[C@@H]2CN(CCc3c([nH]c4ccccc34)[C@@](C(=O)OC)(c3cc4c(cc3OC)N(C)[C@H]3[C@@](O)(C(=O)OC)[C@H](OC(C)=O)[C@]5(CC)C=CCN6CC[C@]43[C@@H]65)C2)C1 [Vinblastine]; details: top dose 0.1 µM; top dose inferred
Experimental: as §1

[3] = compound: CN(C)C/C=C/C(=O)Nc1cc2c(Nc3ccc(F)c(Cl)c3)ncnc2cc1O[C@H]1CCOC1 [Afatinib]
Experimental: as §1

[4] = compound: CN(c1ncccc1CNc1nc(Nc2ccc3c(c2)CC(=O)N3)ncc1C(F)(F)F)S(C)(=O)=O [PF-562271]; details: top dose 2.56 µM; top dose inferred
Experimental: as §1

[5] = compound: O=C(NC1CC1)c1cccc(-c2ccc3c(NC(=O)C4CC4)n[nH]c3c2)c1 [XMD13-2]; details: top dose 10.24 µM; top dose inferred
Experimental: as §1

[6] = top dose 0.5 µM, screen: GDSC drug entry 1032
[7] = top dose 10 µM, screen: GDSC drug entry 1377, top dose inferred

Cell Line | AUC [1] | IC50 [1] [nM] | AUC [2] | IC50 [2] [nM] | AUC [3, 6] | IC50 [3, 6] [nM] | AUC [3, 7] | IC50 [3, 7] [nM] | AUC [4] | IC50 [4] [nM] | AUC [5] | IC50 [5] [nM]
Raji (Burkitt lymphoma, suspension) | 0.565 | 237 | 0.765 | 34.2 | 0.925 | > 500 | 0.988 | > 10000 | 0.967 | > 2560 | 0.968 | > 10200
Ramos-2G6-4C10 (Burkitt lymphoma, suspension) | 0.317 | 53.9 | 0.211 | 1.05 | 0.974 | > 500 | 0.986 | > 10000 | 0.932 | > 2560 | 0.787 | 3770
SAS (head and neck, adherent) | 0.436 | 105 | 0.676 | 20.5 | 0.842 | 411 | 0.803 | 5630 | 0.96 | > 2560 | 0.897 | > 10200
SAT (head and neck, adherent) | 0.716 | 930 | 0.562 | 10.1 | 0.524 | 37.8 | 0.384 | 252 | 0.919 | > 2560 | 0.975 | > 10200
SBC-1 (small cell lung carcinoma, suspension) | 0.725 | 677 | 0.485 | 5.71 | 0.988 | > 500 | 0.965 | > 10000 | 0.988 | > 2560 | 0.981 | > 10200
SBC-3 (small cell lung carcinoma, adherent) | 0.111 | 10.4 | 0.535 | 7.71 | 0.989 | > 500 | 0.975 | > 10000 | 0.876 | 2160 | 0.681 | 1940
SCC-4 (head and neck, adherent) | 0.474 | 135 | 0.385 | 2.84 | 0.955 | > 500 | 0.796 | 5690 | 0.847 | 2440 | 0.975 | > 10200
SCC-9 (head and neck, adherent) | 0.368 | 62.2 | 0.554 | 9.17 | 0.978 | > 500 | 0.311 | 158 | 0.877 | > 2560 | 0.838 | 9910
SCC-25 (head and neck, adherent) | 0.487 | 147 | 0.636 | – | 0.813 | 315 | 0.751 | 3690 | 0.89 | > 2560 | 0.858 | 10200
SCH (stomach, adherent) | 0.988 | > 2560 | 0.74 | 32.4 | 0.982 | > 500 | 0.971 | > 10000 | 0.987 | > 2560 | 0.988 | > 10200
SF126 (glioma, adherent) | 0.437 | 106 | 0.629 | 14.5 | 0.986 | > 500 | 0.982 | > 10000 | 0.881 | > 2560 | 0.977 | > 10200
SF268 (glioma, adherent) | 0.668 | 488 | 0.544 | 8.32 | 0.984 | > 500 | 0.965 | > 10000 | 0.909 | > 2560 | 0.899 | > 10200
SF295 (glioma, adherent) | 0.466 | 128 | 0.762 | 38.3 | 0.98 | > 500 | 0.874 | > 10000 | 0.905 | > 2560 | 0.951 | > 10200
SF539 (glioma, adherent) | 0.578 | 256 | 0.37 | 2.86 | 0.967 | > 500 | 0.964 | > 10000 | 0.948 | > 2560 | 0.879 | 8700
SH-4 (melanoma, adherent) | 0.551 | 237 | 0.738 | 44.6 | 0.963 | > 500 | 0.871 | > 10000 | 0.878 | > 2560 | 0.949 | > 10200
SHP-77 (small cell lung carcinoma, semi-adherent) | 0.541 | 204 | 0.895 | 98.9 | 0.988 | > 500 | 0.991 | > 10000 | 0.987 | > 2560 | 0.89 | 9620
SIMA (neuroblastoma, adherent) | 0.752 | 951 | 0.913 | > 100 | 0.983 | > 500 | 0.984 | > 10000 | 0.935 | > 2560 | 0.92 | > 10200
SISO (cervix, adherent) | 0.839 | 1640 | 0.488 | 5.82 | 0.988 | > 500 | 0.946 | > 10000 | 0.88 | 2450 | 0.939 | > 10200
SJRH30 (rhabdomyosarcoma, adherent) | 0.86 | 2260 | 0.731 | 29.2 | 0.961 | > 500 | 0.985 | > 10000 | 0.943 | > 2560 | 0.846 | 7870
SJSA-1 (bone, adherent) | 0.563 | 244 | 0.628 | 14.8 | 0.977 | > 500 | 0.961 | > 10000 | 0.952 | > 2560 | 0.907 | > 10200
SK-ES-1 (Ewing sarcoma, semi-adherent) | 0.423 | 97.4 | 0.59 | 11.2 | 0.98 | > 500 | 0.981 | > 10000 | 0.88 | > 2560 | 0.875 | > 10200
SK-HEP-1 (liver, adherent) | 0.857 | 1870 | 0.62 | 13 | 0.985 | > 500 | 0.987 | > 10000 | 0.933 | > 2560 | 0.982 | > 10200

Cell Line | AUC [1] | IC50 [1] [nM] | AUC [2] | IC50 [2] [nM] | AUC [3, 6] | IC50 [3, 6] [nM] | AUC [3, 7] | IC50 [3, 7] [nM] | AUC [4] | IC50 [4] [nM] | AUC [5] | IC50 [5] [nM]
SK-LMS-1 (soft tissue, adherent) | 0.18 | 18.6 | 0.452 | 4.65 | 0.983 | > 500 | 0.961 | > 10000 | 0.927 | > 2560 | 0.902 | > 10200
SK-MEL-1 (melanoma, suspension) | 0.943 | > 2560 | 0.957 | > 100 | 0.993 | > 500 | 0.986 | > 10000 | 0.993 | > 2560 | 0.986 | > 10200
SK-MEL-2 (melanoma, adherent) | 0.955 | > 2560 | 0.441 | 4.29 | 0.987 | > 500 | 0.959 | > 10000 | 0.924 | > 2560 | 0.87 | 10200
SK-MEL-3 (melanoma, adherent) | 0.875 | > 2560 | 0.924 | > 100 | 0.974 | > 500 | 0.968 | > 10000 | 0.983 | > 2560 | 0.914 | > 10200
SK-MEL-24 (melanoma, adherent) | 0.335 | 50.3 | 0.826 | 78.2 | 0.959 | > 500 | 0.921 | > 10000 | 0.95 | > 2560 | 0.982 | > 10200
SK-MEL-30 (melanoma, adherent) | 0.619 | 348 | 0.764 | 38.3 | 0.981 | > 500 | 0.984 | > 10000 | 0.905 | > 2560 | 0.92 | > 10200
SK-MES-1 (lung squamous cell carcinoma, adherent) | 0.809 | 1490 | 0.564 | 9.51 | 0.815 | 307 | 0.816 | 6150 | 0.871 | > 2560 | 0.953 | > 10200
SK-MM-2 (myeloma, suspension) | 0.488 | 148 | 0.985 | > 100 | 0.987 | > 500 | 0.986 | > 10000 | 0.949 | > 2560 | 0.927 | > 10200
SK-N-AS (neuroblastoma, adherent) | 0.83 | 1960 | 0.656 | 18.2 | 0.984 | > 500 | 0.982 | > 10000 | 0.958 | > 2560 | 0.836 | 8340
SK-N-DZ (neuroblastoma, adherent) | 0.737 | 753 | 0.757 | 34 | 0.987 | > 500 | 0.857 | 8000 | 0.971 | > 2560 | 0.982 | > 10200
SK-N-FI (neuroblastoma, adherent) | 0.833 | 1630 | 0.946 | > 100 | 0.981 | > 500 | 0.986 | > 10000 | 0.988 | > 2560 | 0.908 | > 10200
SK-N-SH (neuroblastoma, adherent) | 0.685 | 523 | 0.785 | 42.3 | 0.987 | > 500 | 0.961 | > 10000 | 0.915 | > 2560 | 0.976 | > 10200
SK-PN-DW (Ewing sarcoma, adherent) | 0.574 | 256 | 0.454 | 4.67 | 0.986 | > 500 | 0.952 | > 10000 | 0.892 | > 2560 | 0.86 | 9130
SK-UT-1 (soft tissue, adherent) | 0.886 | 2390 | 0.546 | 8.24 | 0.988 | > 500 | 0.984 | > 10000 | 0.833 | – | 0.952 | > 10200
SKG-IIIa (cervix, adherent) | 0.977 | > 2560 | 0.629 | 16.1 | 0.915 | > 500 | 0.918 | > 10000 | 0.936 | > 2560 | 0.983 | > 10200
SKN (uterus, adherent) | 0.641 | 428 | 0.454 | 4.56 | 0.961 | > 500 | 0.874 | > 10000 | 0.962 | > 2560 | 0.933 | > 10200
SKN-3 (head and neck, adherent) | 0.568 | 254 | 0.552 | 8.89 | 0.837 | 423 | 0.953 | > 10000 | 0.966 | > 2560 | 0.958 | > 10200
SLVL (B-cell lymphoma, suspension) | 0.224 | 23.6 | 0.738 | 31.3 | 0.984 | > 500 | 0.968 | > 10000 | 0.906 | > 2560 | 0.76 | 3820
SNB75 (glioma, adherent) | 0.958 | > 2560 | 0.585 | 11.9 | 0.979 | > 500 | 0.927 | > 10000 | 0.824 | > 2560 | 0.975 | > 10200
SNG-M (endometrium, adherent) | 0.415 | 94 | 0.471 | 5.23 | 0.929 | > 500 | 0.837 | 6480 | 0.934 | > 2560 | 0.882 | > 10200
SNU-182 (liver, adherent) | 0.633 | 379 | 0.355 | 2.44 | 0.941 | > 500 | 0.911 | > 10000 | 0.934 | > 2560 | 0.948 | > 10200
SNU-387 (liver, adherent) | 0.461 | 123 | 0.551 | 8.8 | 0.983 | > 500 | 0.974 | > 10000 | 0.811 | 1600 | 0.918 | > 10200

— the supplement of paper PMC4967469
